Test results reported in PubChem BioAssay AID1963576 (National Center for Advancing Translational Sciences (NCATS), 2024).
Among all 46,000 compounds or so, about 60 (0.1%) were called active. Roughly 3% stayed inconclusive and do not appear here. The call rests on the fitted dose curve; in most records, active means well fitted inhibition curve with a large enough effect; inconclusive means small, poorly fitted or top-dose-only effect; inactive means no such curve, though single readings can be large or run the other way. The list shows a part of the results.

assay: Primary qHTS assay for Inhibitors of ovarian cancer metastasis using an organotypic tumor microenvironment (TME) model.; further: nearly all actives have a fitted effect of over 65% in size;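 on activity change, negative = inhibition: plate controls were DMSO wells for no effect and tomatine positive control wells for full effect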; details: SKOV3ip1-GFP adhesion/invasion on 3D omental model, fluorescence; series mostly up to 45.8 µM; activity change, negative = inhibition: at the top concentration
Procedure, shortened: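 qHTS, 4-pt dose (0.36-46 umol/L); SKOV3ip1-GFP, 1,200 cells/well, no FBS; primary omental fibroblast/mesothelial co-culture 48 h pre-grown; 2 h RT + 16 h 37 C; PBS wash, 4% PFA; GFP count 488/509 nm.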

Activity change, negative = inhibition, inactive:
COc1ccc(-c2cc(C(=O)NCCc3ccccc3)c3cc(C(C)C)ccc3n2)cc1 5.15%
CC(=O)c1ccc(N2CCN(C3C(=O)c4ccccc4N3C(C)=O)CC2)cc1 (configuration not stated) 2.75%
NC(=O)c1cccc2cn(-c3ccc([C@@H]4CCCNC4)cc3)nc12 -9.25%
CCc1ccc(NC(=O)CSc2nc(=O)n(Cc3ccco3)c3c2CCC3)cc1 2.13%
Cc1nc2nc(NC(=O)c3ccc(Cl)cc3)[nH]n2c(=O)c1Cc1ccccc1 -6.23%
COc1ccc2nc(NC(=O)c3ccc(S(=O)(=O)N4CCCC(C)C4)cc3)sc2c1 (configuration not stated) 12.6%
O=C(CCc1ccc(O)cc1)c1c(O)cc(O)cc1O 6.15%
COc1cc2ncnc(Nc3ccc(F)c(Cl)c3)c2cc1NC(=O)C=CCN1CCCCC1 -1.3%
CC1=C(C(=O)Nc2ccccc2C)C(c2ccccn2)n2nc(SCc3ccccc3F)nc2N1 (configuration not stated) -6.91%
O=C(NC1CC(=O)N(c2ccc(Cl)cc2)C1)c1cccs1 (configuration not stated) 0.147%
CC(NC(=O)Cn1c(-c2cccs2)cc2cc(F)ccc21)c1ccccc1 (configuration not stated) 6.71%
Cc1ccc(S(=O)(=O)c2nnn3c2nc(N2CCN(c4ccccc4F)CC2)c2ccccc23)cc1C -25.1%
O=c1[nH]c(SCc2ccc(Br)cc2)nc2c1CCCC2 -0.832%
CCOC(=O)c1cc(-c2ccccc2)n(CCCC(=O)Nc2ccc(C)cc2C)c1C 2.83%
Cc1ccc(C(=O)NC2(C(F)(F)F)C(=O)Nc3c2c(=O)[nH]c(=O)n3CCc2ccccc2)cc1 (configuration not stated) 4.9%
O=C(Cn1c(=O)n(Cc2ccc3c(c2)OCO3)c(=O)c2ccc(C(=O)NC3CCCCC3)cc21)Nc1ccccc1F 4.19%
C[C@H]1O[C@@H](n2cc(F)c(=O)[nH]c2=O)[C@H](O)[C@H]1O -5.83%
Cc1cccn2c(=O)c3cc(C(=O)NCc4ccccc4Cl)sc3nc12 -0.614%
CC(C)(C)C(=O)N1CCN(c2nc3c(F)cccc3s2)CC1 -9.36%
Oc1cccc(Nc2ncnc3sc4c(c23)CCCC4)c1 3.7%
Cc1c(C(=O)N2CCC(C(=O)Nc3ccc(F)cc3)CC2)sc2nc[nH]c(=O)c12 0.493%
Cc1noc2ncnc(NCc3cccc(Cl)c3)c12 4.06%
Cc1cccc(-n2c3nc(=O)n(C)c(=O)c-3cc3ccc(Cl)cc32)c1C 26%
CN1CCN(CCCN2c3ccccc3Sc3ccc(C(F)(F)F)cc32)CC1 27.7%
COc1ccc(NC(=O)c2nnn(Cc3ccc(Br)cc3F)c2N)c(OC)c1 -4.62%
O=C(C1CCN(S(=O)(=O)c2cccc3nonc23)CC1)N1CCN(c2ccccc2)CC1 32.3%
CCOc1ccc(CNC(=O)c2ccc(CS(=O)c3ccccc3)o2)cc1 (configuration not stated) -0.203%
Cc1ccccc1NC(=O)Cn1nc(-c2ccc(F)cc2)c2cnc3ccccc3c21 0.987%
CC(=O)N1CCCc2ccc(NS(=O)(=O)c3ccc(F)cc3F)cc21 6.39%
Cc1ccc(N2CC(NC(=O)c3ccc4c(c3)OCO4)CC2=O)cc1 (configuration not stated) -3.98%
CS(=O)(=O)N1CCc2cc(C(=O)N3CCN(c4ccc(F)cc4)CC3)ccc21 -1.34%
CC(=O)N1CCc2c(sc3c2c(=O)n(-c2ccc(C)cc2)c(=O)n3CC(=O)Nc2ccccc2)C1 -13.8%
O=C(NCCc1ccc(Cl)cc1)c1ccc(CS(=O)(=O)Cc2ccccc2F)o1 -4.35%
Cn1c(Oc2ccc(F)cc2)nc2c1c(=O)n(Cc1ccccc1Cl)c(=O)n2C 3.69%
Cc1ccc2nc(NC(=O)c3cc(=O)c4cc(Cl)ccc4o3)sc2c1 0.678%
CSc1ccc(CNC(=O)c2cc3c(=O)n(Cc4ccco4)ccc3nc2C)cc1 -5.39%
CCc1ccccc1NC(=O)CSc1nnc(CC)c(CC)n1 8%
CC(C)c1ccc(Nc2c(-c3ccccc3O)nc3cnccn23)cc1 -11.1%
COC(=O)Nc1nc2ccc(C(=O)c3cccs3)cc2[nH]1 24.2%
COC(=O)c1c(NC(=O)c2ccccc2C(=O)O)sc2c1CCCC2 2.39%
Cc1ccc(-c2cc(C(=O)NCc3ccccc3)c3c(-c4ccc(C)cc4)[nH]nc3n2)cc1 76.2%
COc1ccc(Cn2ccc3nc(C)c(C(=O)Nc4ccc(C)c(F)c4)cc3c2=O)cc1 1.42%
COc1ccccc1NC(=O)c1c(NC(=O)c2ccccc2F)sc2c1CCC2 -8.15%
Cc1ccc(C)c(S(=O)(=O)c2nnn3c2nc(Nc2ccc(F)c(Cl)c2)c2sccc23)c1 -7.53%
Cc1c(Cl)cccc1NC(=O)Cn1nc(C)c2sc3ccccc3c2c1=O 3.49%
COc1ccc(N2CCN(C(=O)c3ccc4c(c3)CCN4S(C)(=O)=O)CC2)cc1 11.8%
CCSc1nc2c(c(=O)[nH]c(=O)n2C)n1CC(O)COc1ccc(Cl)cc1 (configuration not stated) -25.5%
CCc1ccc(OCC(=O)NCc2nc(-c3cccc(C)c3)no2)c(Br)c1 -5.32%
CCCCOC(=O)c1ccc(NC(=O)Cc2coc3ccc(C(C)C)cc23)cc1 -29.5%
Cc1ccc(S(=O)(=O)CCC(=O)N2CCN(c3nc4c(C)c(Cl)ccc4s3)CC2)cc1 -3.3%
Cc1ccc2c(c1)N(C(=O)N1CCC(C(=O)NCc3ccco3)CC1)CC(C)O2 (configuration not stated) 30.5%
COc1ccccc1OCCn1c(-c2ccc(Br)cc2)nc2ccccc2c1=O 0.259%
Cc1cccc(N(CC(=O)NCCSc2ccc(Cl)cc2)S(=O)(=O)c2ccccc2)c1C -2.19%
CCOC(=O)C1CCN(C(=O)Cn2ncc3c([nH]c4ccc(C)cc43)c2=O)CC1 3.66%
CC(=O)N1CCC2(CC1)OC(=O)C(C)=C2C(=O)Nc1ccccc1C(F)(F)F -24.9%
Cc1cccc(C(=O)Nc2nc(-c3ccc(Br)cc3)ns2)c1 -11.6%
COc1cc(C(=O)N2CCc3c([nH]c4ccccc34)C2c2ccccc2)cc(OC)c1OC (configuration not stated) -1.17%
CCOC(=O)C1CCC(CN(Cc2c(Cl)cccc2Cl)S(=O)(=O)c2ccc(F)cc2)CC1 (configuration not stated) -9.97%
Cc1ccc(C)c(N2CCN(C(=O)c3cc(S(=O)(=O)N4CCCC4)cn3C)CC2)c1 1.43%
COc1ccccc1CCNC(=O)Cn1ccc2cc(S(=O)(=O)N3CCCCCC3)ccc21 2.54%
COc1cccc(-c2nn(C)c3sc(C(=O)N4CCN(c5cccc(C)c5)C(C)C4)cc23)c1 (configuration not stated) -4.47%
CC(S)C(=O)NCC(=O)O (configuration not stated) 24.1%
CSc1ncc(C(=O)N2CCN(c3ccc(F)cc3)CC2)c(C)n1 21%
CCn1cc(C(=O)NCc2ccccc2Cl)c(=O)c2cc(S(=O)(=O)N3CCCCC3)ccc21 2.02%
CCOc1ccc(N(CC)C(=O)CSc2n[nH]c(-c3ccccc3)n2)cc1 -12.8%
Cc1ncc(CO)c2c1Oc1nc(-c3ccccc3)nc(SCC(=O)Nc3cccc(C(F)(F)F)c3)c1C2 4.1%
CCCCn1c(-c2ccc(C)cc2)c(C)n2c3c(=O)n(C)c(=O)n(C)c3nc12 -8.86%
Cc1ccc(OCCCCn2c(CCNC(=O)C(C)(C)C)nc3ccccc32)cc1 2.39%
Cc1ccccc1-c1noc(CSc2nnc(-c3ccncc3)n2-c2ccc(F)cc2)n1 -0.492%
Cc1ccccc1NC(=O)CN1C(=O)CCn2nc(-c3cccn3C)cc21 1.97%
Cc1sc2c(c1C)c(=O)n(-c1cccc(C(F)(F)F)c1)c(=O)n2Cc1ccccc1C#N 7.48%
Cc1oc(-c2ccc(C(=O)NCc3ccccc3)cc2)nc1CS(=O)(=O)c1ccccc1 -11.4%
COc1ccc(-c2coc3c2c(C)cc2oc(=O)cc(C)c23)cc1 -15.2%
O=C(NC1CCCC1)c1ccc2c(c1)N(Cc1ccccc1F)C(=O)c1ccccc1S2 -5.14%
O=C(CSc1n[nH]c(-c2ccccc2Cl)n1)N1CCN(c2ccccc2F)CC1 -7.02%
COc1ccc(CCN2C(=O)N(c3ccc(F)cc3)C(=O)C2CC(=O)Nc2ccc(F)c(F)c2)cc1 (configuration not stated) 4.08%
Cc1cccc(N2CCN(C(=O)c3oc(=O)c4ccccc4c3-c3ccccc3)CC2)c1C -12.4%
Cc1c(NC(=O)c2ccc(N3CCC(C)CC3)c([N+](=O)[O-])c2)cccc1-c1nc2ccccc2o1 0.555%
CC(C)[N+]1(C)[C@@H]2CC[C@H]1CC(OC(=O)C(CO)c1ccccc1)C2 (some centres not stated) -5.24%
COCCCNC(=O)C1CCC(Cn2c(=O)c3sccc3n(Cc3ccc(F)cc3)c2=O)CC1 (configuration not stated) 6.9%
COc1ccc(-c2noc(N3CCN(c4cccc(C)c4C)CC3)n2)cc1OC -12.6%

outcome, inactive:
O=S(=O)(c1ccc(Br)cc1)c1nnn2c1nc(NCc1cccs1)c1sccc12
O=C(CSc1nc(=O)n(Cc2ccco2)c2c1CCC2)NCc1ccc(F)cc1
CCC(C)NC(=O)c1c(-c2ccccc2)c(-c2ccccc2)nn(C)c1=O (configuration not stated)
COc1ccc(-c2cc(C(=O)Oc3ccc(C)c(C)c3)c3ccccc3n2)cc1
CCOc1ccc(-n2c(SCC(=O)N3CCCCC3)nc3c([nH]c4ccccc43)c2=O)cc1
CS(=O)(=O)N1CCc2cc(C(=O)NCc3ccccc3)ccc21
COc1ccc(N2CCN(C(=O)c3nc(-c4ccc(Cl)cc4)n4c3CCCCC4)CC2)cc1
Cc1cc(N2CCC(C)CC2)nc2ccc(NC(=O)/C=C/c3cccc(Cl)c3)cc12
CCOc1ccc(-c2c(C)nn3c(C)c(C(=O)NCc4ccc(C)o4)cnc23)cc1OCC
Cc1nc(SCC(=O)Nc2ccc(Br)cc2)[nH]c(=O)c1Cc1ccccc1
CCc1nnc(SCc2nc(-c3ccc(OC)cc3)oc2C)c2cc3sccc3n12
CC1=C(C(=O)Nc2cccnc2)C(c2ccccc2)n2nc(SCc3ccccc3F)nc2N1 (configuration not stated)
O=C(Cc1ccccc1)Nc1cccc(-c2nc3cccnc3s2)c1
CCOc1ccc(N(CC(=O)NCc2ccc(Cl)cc2)S(=O)(=O)c2c(C)noc2C)cc1
Cc1ccc(C(=O)Nc2ccc(OCc3cc(=O)n4c5c(sc4n3)CCCC5)cc2)cc1
Cc1cc(NC(=O)Nc2csc3c2CCCC3)ccc1Br
